# Whole data set: some 81,000 sequences, median “one-hybrid fitness for binding parS DNA” near -0.17, cut for the highest 2% near 0.51. The list shows a part of the results.
# B1: Caulobacter ParB omega fusion; a variant is named by its letters at X, in order, B8GW30 (parent)
# chain: MESVVVGEPGMSEGRRGLGRGLSALLGEVDAAPAQAPGEQLGGSREAPIEILQRNPDQPRRTFREEDLEDLSNSIREKGVLQPILVRPSPDTAGEYQIVAGERAWRAAQRAGLKTVPIMVRELDDLAVLEIGIIENVQRADLNVLEEALSYKVLMEKFERTQENIAQTIGKSXSHVANXMRLLXLPDEVQSYLVSGELTAXHARAIAAAADPVALAKQIIEGGLSVRETEALARKAPNLSAGKSKGGRPPRVKDTDTQALESDLSSVLGLDVSIDHRGSTGTLTITYATLEQLDDLCNRLTRGI
# Variants of: B1
# Experiment: one-hybrid fitness for binding parS DNA (scaled: cognate 1, non-cognate 0); higher = stronger binding
# Details: with parS DNA site
# How it was run: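 The reporter was HIS3, with the binding site 19 bp from the promoter, in E. coli USO used for bacterial one-hybrid selection of Caulobacter ParB libraries with four specificity codons randomised. Growth was on M9 lacking histidine, with 0.1 mM IPTG and 5 mM 3-AT, for 48 hours at 37°C. Illumina sequencing covered plasmids before and after selection; three replicate libraries were pooled and variants with under 10 reads dropped. A fitness score is the log change in variant-to-wild-type read ratio, rescaled to the cognate and non-cognate references.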
row,Variant,one-hybrid fitness for binding parS DNA
1,MTPR,≤ 0.2
2,QLVP,≤ 0.2
3,KGLS,≤ 0.2
4,TNFS,≤ 0.2
5,AHAT,≤ 0.2
6,YGTS,≤ 0.2
7,ARHY,≤ 0.2
8,NMAG,≤ 0.2
9,DMHS,≤ 0.2
10,TGQV,≤ 0.2
11,VAHC,≤ 0.2
12,QIHY,≤ 0.2
13,YELI,≤ 0.2
14,SVED,≤ 0.2
15,REYV,≤ 0.2
16,KVTF,≤ 0.2
17,RMKH,0.24
18,QVVI,≤ 0.2
19,FRKL,≤ 0.2
20,KYAD,≤ 0.2
21,MNRC,≤ 0.2
22,PLNW,≤ 0.2
23,DFHS,≤ 0.2
24,HKGR,≤ 0.2
25,KHHS,≤ 0.2
26,SAEG,≤ 0.2

row,Variant,one-hybrid fitness for binding parS DNA
1,PDCL,≤ 0.2
2,ACSS,≤ 0.2
3,PQAV,≤ 0.2
4,HMFC,≤ 0.2
5,WTYT,≤ 0.2
6,QNSA,≤ 0.2
7,NRIC,≤ 0.2
8,MTRT,≤ 0.2
9,YMDS,≤ 0.2
10,LKQM,≤ 0.2
11,EGDT,≤ 0.2
12,KSLW,≤ 0.2
13,YILG,≤ 0.2
14,KMKL,≤ 0.2
15,AWTR,≤ 0.2
16,QVCS,≤ 0.2
17,KTMA,≤ 0.2
18,GWIT,≤ 0.2
19,HHTG,≤ 0.2
20,TVGC,≤ 0.2
21,QYCR,≤ 0.2
22,SKHT,≤ 0.2
23,PRDG,≤ 0.2
24,SDYH,0.273
25,KATH,≤ 0.2
26,FYQV,≤ 0.2

row,Variant,one-hybrid fitness for binding parS DNA
1,YNGG,≤ 0.2
2,GKWW,≤ 0.2
3,DREA,≤ 0.2
4,NVQV,≤ 0.2
5,TFKK,0.337
6,DFQV,≤ 0.2
7,RFIF,≤ 0.2
8,SGTD,≤ 0.2
9,WASS,≤ 0.2
10,GRNL,≤ 0.2
11,TRES,≤ 0.2
12,SAMG,≤ 0.2
13,IFLT,≤ 0.2
14,HTWL,≤ 0.2
15,TKCA,≤ 0.2
16,LEPF,≤ 0.2
17,RCNA,0.719
18,SKLK,≤ 0.2
19,CAYS,≤ 0.2
20,RTPF,≤ 0.2
21,QWVD,≤ 0.2
22,PGCL,≤ 0.2
23,VSQT,≤ 0.2
24,SIAN,≤ 0.2
25,CHTM,≤ 0.2
26,APVA,≤ 0.2

row,Variant,one-hybrid fitness for binding parS DNA
1,RWYL,≤ 0.2
2,TCGF,≤ 0.2
3,LHPW,≤ 0.2
4,CSMS,≤ 0.2
5,AVAD,≤ 0.2
6,YHYC,≤ 0.2
7,HIPQ,≤ 0.2
8,WTMC,≤ 0.2
9,VFAT,≤ 0.2
10,TTRS,≤ 0.2
11,ETDI,≤ 0.2
12,HVIP,≤ 0.2
13,NGKF,≤ 0.2
14,TCDT,≤ 0.2
15,TSLD,≤ 0.2
16,QKYI,≤ 0.2
17,VDYF,0.241
18,HIMR,≤ 0.2
19,YKQR,≤ 0.2
20,WKIG,≤ 0.2
21,TKEM,≤ 0.2
22,RVQA,0.597
23,TGSR,≤ 0.2
24,ADKT,≤ 0.2
25,AISG,≤ 0.2
26,MNNS,≤ 0.2

row,Variant,one-hybrid fitness for binding parS DNA
1,HTRH,≤ 0.2
2,YVHS,≤ 0.2
3,RQGM,0.287
4,NHRL,≤ 0.2
5,NATC,≤ 0.2
6,RLTS,0.984
7,PEAV,≤ 0.2
8,MPVR,≤ 0.2
9,TQNR,≤ 0.2
10,NPKL,≤ 0.2
11,RFND,≤ 0.2
12,TRLM,≤ 0.2
13,QMHR,≤ 0.2
14,SISL,≤ 0.2
15,TPIM,≤ 0.2
16,GPVM,≤ 0.2
17,KTVG,≤ 0.2
18,SIWG,≤ 0.2
19,PARF,≤ 0.2
20,LVFF,≤ 0.2
21,HKSC,≤ 0.2
22,RGQM,≤ 0.2
23,TLKM,≤ 0.2
24,ERES,≤ 0.2
25,RRVS,0.708
26,QNDK,≤ 0.2

row,Variant,one-hybrid fitness for binding parS DNA
1,SSYW,≤ 0.2
2,YEPS,≤ 0.2
3,GGTR,≤ 0.2
4,TKNG,≤ 0.2
5,GLQT,≤ 0.2
6,ILTW,≤ 0.2
7,NWLT,≤ 0.2
8,CMYT,≤ 0.2
9,VVTL,≤ 0.2
10,DKTR,≤ 0.2
11,HLQM,≤ 0.2
12,NTPC,≤ 0.2
13,TRDS,≤ 0.2
14,RKVW,≤ 0.2
15,RTRW,0.542
16,SGCR,≤ 0.2
17,RPFG,≤ 0.2
18,ESLA,≤ 0.2
19,RDCS,≤ 0.2
20,WGYR,≤ 0.2
21,SLHF,≤ 0.2
22,LWTL,≤ 0.2
23,WTLA,≤ 0.2
